Results published in the supplement of paper PMC3334620.
The full ranking holds about 33,000 sequences; the median of “E-score (-0.5 to 0.5)” is about -0.041, and the highest 2% start at about 0.37. The list shows a part of the results.

biological target: T1, Ecm22 (UniProt Q05958); experiment: PBM E-score (8-mer binding enrichment) (E-score (-0.5 to 0.5)); higher = stronger / more preferred TF binding; most listed sequences are background and not binding sites; conditions: protein concentration: 200 nM; construct: GST-full length
T1 sequence: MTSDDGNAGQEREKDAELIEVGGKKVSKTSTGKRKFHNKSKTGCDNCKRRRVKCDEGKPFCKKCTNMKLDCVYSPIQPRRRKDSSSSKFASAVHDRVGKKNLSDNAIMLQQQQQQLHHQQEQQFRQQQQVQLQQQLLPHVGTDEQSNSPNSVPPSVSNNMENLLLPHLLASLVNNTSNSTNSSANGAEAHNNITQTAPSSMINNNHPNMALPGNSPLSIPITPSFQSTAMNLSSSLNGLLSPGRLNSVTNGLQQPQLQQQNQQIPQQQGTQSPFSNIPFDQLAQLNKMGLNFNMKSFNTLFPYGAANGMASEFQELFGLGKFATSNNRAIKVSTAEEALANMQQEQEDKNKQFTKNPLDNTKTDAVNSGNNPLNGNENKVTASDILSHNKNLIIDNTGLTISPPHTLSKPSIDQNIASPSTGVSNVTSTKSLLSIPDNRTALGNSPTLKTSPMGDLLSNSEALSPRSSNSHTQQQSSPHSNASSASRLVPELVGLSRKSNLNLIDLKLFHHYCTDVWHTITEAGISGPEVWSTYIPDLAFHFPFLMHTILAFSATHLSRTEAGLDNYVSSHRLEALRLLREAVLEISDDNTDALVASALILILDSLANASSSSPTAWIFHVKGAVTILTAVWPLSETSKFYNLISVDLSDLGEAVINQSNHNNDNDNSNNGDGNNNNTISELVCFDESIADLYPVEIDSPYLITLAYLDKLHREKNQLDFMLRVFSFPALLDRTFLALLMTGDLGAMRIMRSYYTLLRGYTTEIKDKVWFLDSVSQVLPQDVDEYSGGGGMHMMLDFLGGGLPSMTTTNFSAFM
Method: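 Universal 'all 10-mer' protein binding microarrays (Agilent AMADID 015681) probed with GST-tagged S. cerevisiae TFs (full-length or DBD) made by in vitro transcription/translation (PURExpress), about 100-200 nM. Bound TF was detected with fluorescent anti-GST. Each ungapped 8-mer (which stands for itself and its reverse complement) is scored by the PBM enrichment score (E-score), a modified Wilcoxon-Mann-Whitney statistic from -0.5 to +0.5, computed with the Universal PBM Analysis Suite. Scale: above 0.35 generally sequence-specific binding.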

Row | Sequence | PBM E-score
1 | TACTGCAA | -0.124
2 | CGAAACAC | 0.0709
3 | GACTTCCC | -0.212
4 | CAGGCCTC | -0.294
5 | GCTCGACA | -0.102
6 | CACGATTC | 0.244
7 | AACAAGGC | -0.237
8 | AAATGCAT | -0.0262
9 | ATGACAGG | -0.0225
10 | ACACGTGG | -0.232
11 | AGATGCTA | -0.00158
12 | GGCATAAC | -0.13
13 | AACATGGG | -0.101
14 | CTGTCGGA | 0.0999
15 | ACAAGTCA | 0.0408
16 | TACAGTGA | -0.164
17 | TCCAGCCA | -0.299
18 | ACCCTTGG | -0.233
19 | AGCAAGGC | -0.121
20 | CCAATCGC | -0.00902
21 | TGCAGGCA | -0.122
22 | CTAGAGGC | -0.156
23 | CCGTCTCG | 0.231
24 | GTGCCGGA | -0.0508
25 | GCTTAACC | -0.0005

Row | Sequence | PBM E-score
26 | AACCACTA | -0.147
27 | GGACGGGA | -0.0915
28 | GAGTAAGA | -0.0087
29 | ATCACGGC | -0.0305
30 | CGCTTTTA | -0.0021
31 | AGTGACGC | 0.0126
32 | AATATGAT | 0.0267
33 | GTTCCTGA | 0.125
34 | ACGATCGA | 0.277
35 | AGTGCAGC | -0.13
36 | CTCGCCCA | -0.0108
37 | CATTGCAA | -0.155
38 | TAAAGCAA | -0.0154
39 | AATGCCGT | 0.109
40 | AGGACGAA | -0.00901
41 | AATCACTA | -0.089
42 | ATTGGGGA | -0.132
43 | CATGAGCC | -0.0951
44 | CGCAGTAG | -0.131
45 | CTAGTGAC | -0.165
46 | AGCCTTCA | -0.236
47 | TGCAGCCA | -0.171
48 | AATTGCCA | 0.0187
49 | ATTGTCCG | 0.0363
50 | CCATAGCG | -0.0678

Row | Sequence | PBM E-score
51 | TATCACCA | 0.0407
52 | AGCCAGCT | -0.132
53 | CGCATCGA | 0.145
54 | AACACCTC | -0.168
55 | CTCGATGA | -0.0535
56 | GGTACAAA | -0.0856
57 | GAAGATGC | -0.0972
58 | AATACAAA | 0.206
59 | ACGCGGTG | -0.00032
60 | CCGATATC | 0.0392
61 | AAGGGCTG | -0.377
62 | CGCCAAAC | 0.0809
63 | GGAGGGAA | -0.0738
64 | GAACCTAA | -0.12
65 | CAGACAGG | -0.155
66 | GGCGATCA | -0.159
67 | CCTATACC | -0.0658
68 | AGATTGGA | -0.135
69 | AAACAATG | -0.0509
70 | AATAAATG | -0.0714
71 | CGCCTGTA | -0.166
72 | ATCCGGAG | 0.0978
73 | GTGGGCTA | -0.28
74 | CATGTCTA | -0.138
75 | AGAAGTCG | -0.0775

Row | Sequence | PBM E-score
76 | ACATGCAT | -0.0252
77 | CCCACCGG | -0.218
78 | GTGGATGA | -0.123
79 | AGAAATAA | -0.0747
80 | GCCATAGA | 0.0195
81 | AATGGTGA | -0.128
82 | AATCTTAA | -0.0586
83 | CGGCGAAA | 0.0597
84 | CGGGCTGA | -0.161
85 | AGACTTAA | -0.149
86 | AGCACGGC | -0.00675
87 | ACAGGAGT | -0.248
88 | ATCCAATC | -0.0689
89 | GAGTCCCC | -0.309
90 | ACTTAGAA | 0.0435
91 | TACGCTGA | 0.253
92 | GTCAGAGA | -0.149
93 | TTATGGAA | -0.0194
94 | ATGCAAAC | 0.114
95 | ATTGACGA | 0.0606
96 | ACTTTTAC | 0.166
97 | CAGCCTGA | -0.187
98 | CCCATAAA | -0.159
99 | GACAGGCA | -0.0606
100 | ACTGAAGT | -0.1

Row | Sequence | PBM E-score
101 | GTGGGTAA | -0.111
102 | ATTCGATC | 0.0614
103 | CACGCGCC | -0.179
104 | CGGTGTAA | 0.171
105 | AAAGTATT | -0.0376
106 | GGTATAGA | -0.0121
107 | GAGCAGGC | -0.0285
108 | AGCCCCGA | -0.148
109 | TAGGCCAA | -0.116
110 | ATCATAAG | -0.0578
111 | CGCTCAAC | 0.159
112 | ACATTCGA | 0.0496
113 | ATAATAAT | 0.067
114 | AGCAGGAT | -0.163
115 | ACCCCCGC | -0.191
116 | GAACAGAC | -0.0383
117 | GTTGGGAA | 0.00512
118 | AGCCGGGC | -0.11
119 | GGGATATA | -0.143
120 | ACTGGTCC | -0.00456
121 | CGTAGGAG | 0.0561
122 | ATGTTTAC | 0.113
123 | CACGTCAG | -0.2
124 | ATAACTAA | -0.0258
125 | AAACCTTG | -0.307

Row | Sequence | PBM E-score
126 | GGAGGTGA | -0.0745
127 | TCCATCAA | 0.0348
128 | GATGCTTA | -0.175
129 | AGTCAACC | -0.0824
130 | GGCATTAA | 0.0453
131 | GGCTGCAC | -0.163
132 | AAGTATCT | 0.0197
133 | GCGCAGAA | -0.0347
134 | AGAATGTG | -0.031
135 | CCTGCCCG | -0.19
136 | GTGAGATA | -0.0685
137 | CACGCCAG | 0.0176
138 | AGACTAAA | -0.131
139 | CTTTACCA | -0.226
140 | CCGTGCCG | 0.203
141 | CCACGAAG | 0.0223
142 | ATCCGAGC | 0.248
143 | CGTACAAA | 0.412
144 | ACTATCTA | 0.1
145 | ATTCCGTG | -0.0624
146 | CAGAAGAG | -0.143
147 | CCGTCGCG | 0.229
148 | GAGAAGAC | -0.0299
149 | AGGAAGAT | -0.123
150 | AAATTTGT | 0.14

Row | Sequence | PBM E-score
151 | GGTGTTTA | -0.0272
152 | GTTCGGGA | 0.0627
153 | CCGAGAGG | 0.0023
154 | GAGCAAGA | -0.0825
155 | CAGCCTCG | 0.0801
156 | AAATCTAG | -0.139
157 | ATGCCAAC | 0.0326
158 | CAACGATA | 0.263
159 | AGGAGTCG | -0.0364
160 | GCGACTGA | -0.123
161 | GTGTTAGA | -0.0145
162 | CAGCACAG | -0.186
163 | AGATCCGC | 0.0114
164 | GCTGGCAA | -0.124
165 | TCAGGCGA | -0.194
166 | ATTAGTGC | 0.145
167 | GAACAATA | 0.183
168 | AATAGGGA | -0.103
169 | CACAGCGG | -0.103
170 | CTCACGCA | 0.0186
171 | CCTGGATC | -0.323
172 | ATCTTCTC | -0.0584
